Source: the supplement of paper PMC10338343
± gives the standard deviation. Only a part is listed here, and it is no random draw.

System: MIWI (PIWIL1) piRISC loaded with piRNA #1 (30 nt)
Assay: pre-steady-state target cleavage rate (min^-1); MIWI and MILI are mouse PIWI proteins and EfPiwi is from a freshwater sponge; tags in brackets are library labels; higher = faster piRNA-guided slicing of the target
Conditions: guide: piRNA #1 5'p-UGAGGUAGUAGGUUGUAUAGUAUCCAGAGG; auxiliary factor: 500 nM mouse GTSF1
Procedure, shortened: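 The pre-steady-state cleavage rate was calculated from a burst-and-steady-state fit. Data came from Cleave-'n-Seq, in which […] transcribed, DNA-blocked target RNA library was mixed with 1 nM active affinity-purified piRISC carrying one synthetic guide, with or without 500 nM GTSF1 partner protein, in HEPES–potassium acetate buffer at 33 °C for 0–8 or 0–960 min. Uncleaved targets were sequenced and normalised to depth and to weakly complementary targets, three trials were pooled, and k3 was capped at 0.0001 min^-1.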
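Also: 1 nM active piRISC with 0.1 nM target library at 33 °C single turnover.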

First: CCUCUCGAUACUAUAGAACCUACUACCUCA
Second: GCUCUGGAUACUAUACAACCAACUACCUGA
The “pre-steady-state target cleavage rate” value of the first is higher: 0.39 ± 0.043 for the first, 0.0952 ± 0.013 for the second.

Going from GGUCUGCUAACUAUACAACCUACUACCUCA to GGAGACCAUACUAUACAACCAUGUACCUCA, the “pre-steady-state target cleavage rate” value falls from 1.27 ± 0.11 to under 0.0001.

Compared with GGUCAGGAUACUAUACAACCUACUACCUCA, GGUCUGGAUACUUUACAUCCUACUACCUCA is lower in “pre-steady-state target cleavage rate” value: 1.69 ± 0.089 for the first, 1.35 ± 0.083 for the second.

Compared with GGUGUGGAUACUAUACAACCUACUACGUCA, GGAGACGAUACUUACAACCUACUACCUCA is higher in “pre-steady-state target cleavage rate” value: 0.535 ± 0.063 for the first, 0.769 ± 0.073 for the second.

Compared with GCACUGGAUACUAUACAACGUACUACCUCA, GGAGAGGUUAGUAUACAACCUACUACCUCA is lower in “pre-steady-state target cleavage rate” value: 1.19 ± 0.063 for the first, 0.0713 ± 0.013 for the second.

Going from GCUCUGGAUACUUUACAACCUACUUCCUCA to GCUCUGGAUUCUAUACAACCUACUAGCUCA, the “pre-steady-state target cleavage rate” value rises from 0.246 ± 0.033 to 0.665 ± 0.068.

Going from GGACUGGAUUCAAUACAACCUACUACCUCA to GGAGACCUUACGUAUACAACCUACUACCUCA, the “pre-steady-state target cleavage rate” value falls from 1.13 ± 0.12 to 0.383 ± 0.055.

First: GGAGACCUUACUAUAGAACCUACAACCUCA
Second: GGAGUGGCAUACUAUACAACCUACUACCUCA
The “pre-steady-state target cleavage rate” value of the first is lower: 0.0303 ± 0.0095 for the first, 1.8 ± 0.11 for the second.

Compared with GGUCUGGAUACUAUUCAACCUACUACGUCA, GGAGACCAUACGUAUACAACCUACUACCUCA is higher in “pre-steady-state target cleavage rate” value: 0.363 ± 0.038 for the first, 0.95 ± 0.089 for the second.

Compared with GGAGACCUAACUAUACAAGCUACUACCUCA, GGACUGGAUACUAUACUACCUACUACGUCA is higher in “pre-steady-state target cleavage rate” value: 0.546 ± 0.042 for the first, 0.886 ± 0.095 for the second.

Compared with CCUCUGGAUACUAUACAACGUACUACGUCA, GGAGACCAUAGCUAUACAACCUACUACCUCA is higher in “pre-steady-state target cleavage rate” value: 0.779 ± 0.079 for the first, 1.07 ± 0.082 for the second.

Compared with GGUCUGGAUACUAUACGACCUACUACCUCA, GGAGACCAAACAAUACAACCUACUACCUCA is lower in “pre-steady-state target cleavage rate” value: 1.53 ± 0.098 for the first, 0.377 ± 0.16 for the second.

Going from GGAGAGGAUACUUUACAACCUACUACCUCA to GGACUGGAAACUAUACAACCUACAACCUCA, the “pre-steady-state target cleavage rate” value falls from 1.51 ± 0.071 to 0.194 ± 0.038.

Compared with GCUCUGGAUACUUUAGAACCUACUACCUCA, GGAGACCUAACUAUACAACCUUCUAGCUCA is lower in “pre-steady-state target cleavage rate” value: 0.909 ± 0.055 for the first, 0.0723 ± 0.015 for the second.

Compared with GGAGACGAUUCUAUACAACCUACUUCCUCA, GGAGACCUAACUUUACAACCUACAACCUCA is lower in “pre-steady-state target cleavage rate” value: 0.413 ± 0.038 for the first, 0.00933 ± 0.0054 for the second.

Compared with “GGAGACCUAACUAUACAACCUACUACCUCA [g2:g21:cont:t1A]”, GGAGACCUUACUAAUCAACCUACUACCUCA is lower in “pre-steady-state target cleavage rate” value: 1.19 ± 0.14 for the first, 0.139 ± 0.023 for the second.

Going from GGAGAGGAUUCUAUACAACCUACUACCACA to GGAGACCUUACUAUACAUCCUACUACGUCA, the “pre-steady-state target cleavage rate” value falls from 0.665 ± 0.047 to 0.515 ± 0.044.

Compared with GGAGUGGAAACUAUACAACCUACAACCUCA, GGAGACGAAACUAUACAACCUACUUCCUCA is lower in “pre-steady-state target cleavage rate” value: 0.353 ± 0.05 for the first, 0.25 ± 0.048 for the second.

First: GGAGACCUAACUAUGCAACCUACUACCUCA
Second: GGAGACGAUUCUAUACAACCUAGUACCUCA
The “pre-steady-state target cleavage rate” value of the first is higher: 0.715 ± 0.066 for the first, 0.418 ± 0.053 for the second.

Compared with GGAGACCUUACUUUACAACCUACUACCACA, GGAGUGGUUACUAAACAACCUACUACCUCA is higher in “pre-steady-state target cleavage rate” value: 0.484 ± 0.051 for the first, 1.32 ± 0.073 for the second.
